Results reported in PubChem BioAssay (Tox21).
Where “and” joins values, the source holds several entries; their conditions need not be identical. Equal entries are not always repeated. Inconclusive means that the source gave no clear call. Such entries were picked first, then a sample of the others. A call without a number means that no potency is given here. For part of these data: Potencies of inconclusive entries are doubtful fits and often do not repeat. Calls of active or inactive are those of the source. Unless noted, the call rests on the fitted dose curve; in most records, active means well fitted curve in the direction sought with a large enough effect in the repeat runs; inconclusive means weak or mixed curves; inactive means no such curve, though single readings can be large; an effect the other way counts as inactive or inconclusive.

How the values were obtained:
[1] = qHTS assay to identify small molecule antagonists of the estrogen receptor alpha (ER-alpha) signaling pathway using the BG1 cell line (AID 743080; calls by dose curve;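 further: BG1 cells stimulated with 17beta-estradiol alongside compound; nearly all actives have a fitted effect of over 25% in size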); conditions: BG1Luc4E2 ERE-luciferase antagonist mode, luminescence; activity change, negative = inhibition: at 70.3 µM (top of the series) unless noted
Summary of the method: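 After 5 days in phenol-red-free 10% charcoal-stripped FBS medium, BG1-Luc-4E2 cells were seeded, left 24 h at 37 C, co-treated with compounds and 17beta-estradiol for 21.5 h, then assayed for viability and luciferase.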

[2] = A CellTox Green Cytotoxicity Assay to monitor cytotoxicity in HepG2 cells - 40 hour (AID 1224879); further: nearly all actives have a fitted effect of over 40% in size; further: potency means the concentration at half of the fitted maximal effect
Summary of the method: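 Nonlytic assay: viable cells exclude the dye, so fluorescence scales with cell death. HepG2 at 600 cells/well, compounds added after 5 h, signal read across 40 h.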

[3] = qHTS assay to identify small molecule antagonists of the estrogen related receptor signaling pathway with the pleiotropic PPARgamma coactivator (PGC) from Tox21 10K library - cell viability counter screen (AID 1224840; active means well fitted cell-killing curve with a large enough effect in the repeat runs, not every such curve was filed as active; inconclusive means weak or mixed curves, or effect the other way; inactive means no such curve, though single readings can be large or run the other way; further: nearly all actives have a fitted effect of over 40% in size)
Summary of the method: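 Here the PGC/ERR cells serve as a cytotoxicity control: they are exposed to compounds for 17.5 hours at 37 C, and live-cell signal is quantified using CellTiter-Fluor fluorescence.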

[4] = qHTS RealTime-Glo MT Cell Viability Assay in HEK293 cells - 24 hour (AID 1224886); further: nearly all actives have a fitted effect of over 50% in size; further: potency means the concentration at half of the fitted maximal effect; on activity change, negative = cytotoxicity: top concentration of the series differs between compounds
Summary of the method: (§1)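 Assay medium contained NanoLuc luciferase plus cell-permeant prosubstrate, added with HEK293 cells at 600 cells/well. After 5 h at 37 C/5% CO2 compounds were added; plates stayed at 37 C for 40 h with serial luminescence reads.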

[5] = qHTS assay to identify small molecule antagonists of the TGF-beta/Smad signaling pathway (AID 1346924; active means well fitted inhibition curve with a large enough effect in the signal ratio in the repeat runs, not every such curve was filed as active; inconclusive means weak or mixed curves; the % refers to the signal ratio; further: potency means the concentration at half of the fitted maximal effect); conditions: SBE-bla HEK293T, TGF-beta/Smad reporter, beta-lactamase ratio; activity, negative = inhibition: at 76.8 µM (top of the series) unless noted
Summary of the method: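 SBE-bla HEK 293T cells were plated overnight, then received compound in DMSO plus TGF-beta1 (added as a 0.25 ng/mL solution) and were incubated 5 h at 37 C. Beta-lactamase reporter activity was read after 2 h at room temperature with LiveBLAzer B/G FRET substrate (ex 405, em 460/530 nm).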

[6] = biological target: Aryl hydrocarbon receptor (Homo sapiens) (UniProt P35869); experiment: qHTS assay to identify small molecule that activate the aryl hydrocarbon receptor (AhR) signaling pathway (AID 743085); further: nearly all actives have a fitted effect of over 15% in size; further: potency means the concentration at half of the fitted maximal effect
Summary of the method: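 Luminescence read-out: ONE-Glo reagent, 30 min at room temperature, in HG2L7.5c1 HepG2 reporter cells treated 24 h at 37C. Viability was measured beforehand by CellTiter-Fluor fluorescence after 30 min at 37C.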

[7] = biological target: Thyrotropin receptor (Homo sapiens) (UniProt P16473); experiment: qHTS assay to identify small molecule antagonists of the thyroid stimulating hormone receptor (TSHR) signaling pathway (AID 1259385; calls by dose curve; further: nearly all actives have a fitted effect of over 20% in size; further: potency means the concentration at half of the fitted maximal effect); conditions: TSHR-HEK293 cAMP HTRF, TSH-stimulated antagonist mode; activity change, negative = inhibition: at 92.4 µM (top of the series) unless noted
Summary of the method: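 TSHR-HEK293 cells were plated and held 18 h at 37C/5% CO2, then given compound plus Ro20-1724 and stimulated with TSH at 1.5 ng/mL final. After 30 min at room temperature, cAMP was detected with cAMP-d2/anti-cAMP-cryptate (1 h) by fluorescence.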

[8] = qHTS assay to identify small molecule antagonists of the androgen receptor (AR) signaling pathway using the MDA cell line - cell viability counter screen (AID 743041; further: nearly all actives have a fitted effect of over 45% in size); conditions: MDA-kb2 viability, CellTiter-Fluor, 16 h, cells co-treated with R1881 androgen agonist; viability change, negative = cytotoxic: at 70.3 µM (top of the series)
Summary of the method: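 Viability counter screen run alongside the AR antagonist reporter: cells seeded 5 h before compound, R1881 added, 16 h incubation at 37C without CO2, fluorescent CellTiter-Fluor signal quantified.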

[9] = qHTS assay to identify small molecule antagonists of the estrogen receptor alpha (ER-alpha) signaling pathway using the BG1 cell line - cell viability counter screen (AID 743081); conditions: BG1Luc4E2 viability, CellTiter-Fluor, 22 h; activity change, negative = cytotoxicity: at 70.3 µM (top of the series) unless noted;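 further: compound given together with 17beta-estradiol as the ER stimulus; nearly all actives have a fitted effect of over 45% in size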; further: potency means the concentration at half of the fitted maximal effect
[10] = biological target: Bile acid receptor (Homo sapiens) (UniProt Q96RI1); experiment: qHTS assay to identify small molecule antagonists of the farnesoid-X-receptor (FXR) signaling pathway (AID 743217; active means well fitted inhibition curve with a large enough effect in the signal ratio in the repeat runs, not every such curve was filed as active; inconclusive means weak or mixed curves, or effect the other way; inactive means no such curve, though single readings can be large or run the other way; the % refers to the signal ratio); conditions: HEK293T FXR-UAS-bla, beta-lactamase ratio, CDCA-stimulated, 16 h; activity change, negative = inhibition: at 62.6 µM (top of the series) unless noted
Summary of the method: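 In this cell-based antagonist screen, inhibition of CDCA-driven (50 uM final) UAS-beta-lactamase expression in HEK 293T cells was measured by FRET fluorescence following 16 h compound exposure at 37 °C.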

[11] = qHTS assay to identify small molecule agonists of the vitamin D receptor (VDR) signaling pathway - cell viability counter screen (AID 743224); further: nearly all actives have a fitted effect of over 50% in size
Summary of the method: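 Here cell health was gauged by luminescent ATP detection (CellTiter-Glo, 30 min RT) in VDR-bla cells that had been incubated with test compounds for 16 h at 37C and 5% CO2.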

[12] = biological target: Nuclear receptor subfamily 1 group I member 2 (Homo sapiens) (UniProt O75469); experiment: Human pregnane X receptor (PXR) small molecule agonists, qHTS assay (AID 1346982); further: nearly all actives have a fitted effect of over 35% in size; further: potency means the concentration at half of the fitted maximal effect
Summary of the method: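 We seeded PXR-Luc HepG2 cells in assay medium containing 5% charcoal-stripped FBS, added compounds 5 hr later, incubated 24 hr, and read luminescence with ONE-Glo reagent.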

[13] = qHTS assay to identify small molecule agonists of the peroxisome proliferator-activated receptor delta (PPARd) signaling pathway - cell viability counter screen (AID 743211); conditions: PPARd-bla HEK293H viability, CellTiter-Glo luminescence, 17 h; activity change, negative = cytotoxicity: at 62.6 µM (top of the series) unless noted; further: nearly all actives have a fitted effect of over 55% in size
Summary of the method: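 Read-out: CellTiter-Glo luminescence, 30 min RT, measured in the same wells as the beta-lactamase reporter. Cells: GeneBLAzer PPAR delta UAS-bla HEK293H, 3000 cells/well, compound exposure 17 h at 37C.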

[14] = qHTS assay to identify small molecule agonists of the hypoxia (HIF-1) signaling pathway - cell viability counter screen (AID 1224844; calls by dose curve; further: nearly all actives have a fitted effect of over 50% in size)
Summary of the method: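 Multiplexed with the HRE beta-lactamase assay, this viability read used CellTiter-Glo luminescence (30 min, RT) on HRE-bla ME-180 cells treated 17 hrs with compounds in 0.5% dialyzed FBS medium.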

[15] = Caspase-3/7 induction in CHO-K1 cells by small molecules, qHTS cell viability counter screen (AID 1346979); further: nearly all actives have a fitted effect of over 35% in size
Summary of the method: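 CHO-K1 wt, 1,500 cells/well; 5hr pre-incubation 37C/5% CO2; compound pin transfer (DMSO); 16hr exposure; CellTiter-Fluor added, 1hr, fluorescence read.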

[16] = qHTS assay to identify small molecule antagonists of the vitamin D receptor (VDR) signaling pathway - cell viability counter screen (AID 743225); conditions: VDR-bla HEK293T viability, CellTiter-Glo luminescence, 16 h; viability change, negative = cytotoxic: at 61 µM (top of the series) unless noted; further: potency means the concentration at half of the fitted maximal effect; nearly all actives have a fitted effect of over 50% in size
Summary of the method: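 Viability counter screen run in the same wells as the beta-lactamase reporter assay: HEK 293T VDR-UAS-bla cells, 16 h compound exposure at 37C with 3 nM (final) 1-alpha,25-dihydroxyvitamin D3. CellTiter-Glo luminescence, 30 min, room temperature.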

[17] = qHTS assay to identify small molecule antagonists of the glucocorticoid receptor (GR) signaling pathway - cell viability counter screen (AID 720693); conditions: GR-bla HeLa viability, CellTiter-Glo luminescence, 18 h, with 5 nM dexamethasone present; viability change, negative = cytotoxic: at 58.5 µM (top of the series); further: nearly all actives have a fitted effect of over 55% in size; further: potency means the concentration at half of the fitted maximal effect
[18] = qHTS assay to identify small molecule antagonists of the peroxisome proliferator-activated receptor gamma (PPARg) signaling pathway - cell viability counter screen (AID 743194); conditions: PPARg-bla HEK293H viability, CellTiter-Glo luminescence, 17 h, co-treated with 50 nM rosiglitazone; activity change, negative = cytotoxicity: at 62.6 µM (top of the series) unless noted; further: nearly all actives have a fitted effect of over 55% in size; further: potency means the concentration at half of the fitted maximal effect
Summary of the method: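 PPARg-UAS-bla HEK293H cells were plated, rested 5 h at 37 C, then treated with compounds plus rosiglitazone (50 nM final) for 17 h at 37 C; viability was then read by CellTiter-Glo luminescence after 30 min at room temperature.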

[19] = qHTS RealTime-Glo MT Cell Viability Assay in HEK293 cells - 16 hour (AID 1224872); further: nearly all actives have a fitted effect of over 50% in size; further: potency means the concentration at half of the fitted maximal effect; on activity change, negative = cytotoxicity: top concentration of the series differs between compounds
Summary of the method: as §1

[20] = qHTS RealTime-Glo MT Cell Viability Assay in HEK293 cells - 40 hour (AID 1224874); conditions: RealTime-Glo luminescence; max response: stronger effect = lower value
Summary of the method: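 Tox21 screen in HEK293 using RealTime-Glo MT chemistry, with cells and reagent co-dispensed. Luminescence proportional to viable cell number was captured at intervals during 40 h compound exposure at 37 C.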
Tags describe the fitted curve by direction and shape or compound fluorescence and quenching.

Sequence of UniProt Q96RI1 (Q96RI1 whole entry, looked up): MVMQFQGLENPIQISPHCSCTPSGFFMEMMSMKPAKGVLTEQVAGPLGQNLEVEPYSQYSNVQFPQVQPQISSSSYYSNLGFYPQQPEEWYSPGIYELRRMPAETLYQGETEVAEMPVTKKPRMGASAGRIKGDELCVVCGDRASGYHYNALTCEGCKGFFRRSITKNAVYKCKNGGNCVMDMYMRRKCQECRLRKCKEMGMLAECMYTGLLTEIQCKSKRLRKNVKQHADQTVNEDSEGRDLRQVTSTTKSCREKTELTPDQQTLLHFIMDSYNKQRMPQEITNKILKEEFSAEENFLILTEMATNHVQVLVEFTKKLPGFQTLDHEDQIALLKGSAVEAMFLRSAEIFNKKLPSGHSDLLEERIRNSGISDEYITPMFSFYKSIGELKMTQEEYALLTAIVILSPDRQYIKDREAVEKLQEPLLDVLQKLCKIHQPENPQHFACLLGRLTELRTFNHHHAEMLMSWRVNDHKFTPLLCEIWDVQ
Sequence of UniProt P35869 (P35869 whole entry, looked up): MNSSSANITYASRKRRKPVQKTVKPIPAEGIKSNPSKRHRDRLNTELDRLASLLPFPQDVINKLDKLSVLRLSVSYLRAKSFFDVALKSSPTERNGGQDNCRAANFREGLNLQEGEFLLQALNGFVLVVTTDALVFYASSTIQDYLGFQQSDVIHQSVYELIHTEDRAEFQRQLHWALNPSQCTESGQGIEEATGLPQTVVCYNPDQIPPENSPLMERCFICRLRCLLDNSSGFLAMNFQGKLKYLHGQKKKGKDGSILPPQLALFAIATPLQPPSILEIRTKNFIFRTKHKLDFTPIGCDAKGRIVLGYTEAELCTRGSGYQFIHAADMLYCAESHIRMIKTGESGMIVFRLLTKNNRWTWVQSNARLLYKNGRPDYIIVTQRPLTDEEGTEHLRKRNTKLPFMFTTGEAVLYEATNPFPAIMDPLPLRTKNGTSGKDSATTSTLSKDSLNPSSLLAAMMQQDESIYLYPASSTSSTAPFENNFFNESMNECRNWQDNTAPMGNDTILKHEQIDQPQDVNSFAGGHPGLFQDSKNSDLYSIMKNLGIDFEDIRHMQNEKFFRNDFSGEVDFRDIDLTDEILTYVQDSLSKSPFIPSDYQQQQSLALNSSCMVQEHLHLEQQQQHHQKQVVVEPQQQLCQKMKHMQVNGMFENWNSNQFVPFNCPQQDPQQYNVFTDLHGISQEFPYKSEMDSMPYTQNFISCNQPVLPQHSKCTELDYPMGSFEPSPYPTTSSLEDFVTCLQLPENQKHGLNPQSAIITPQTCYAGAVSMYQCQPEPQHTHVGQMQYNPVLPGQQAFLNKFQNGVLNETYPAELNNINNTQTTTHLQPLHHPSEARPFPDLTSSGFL
Sequence of UniProt P16473 (P16473 whole entry, looked up): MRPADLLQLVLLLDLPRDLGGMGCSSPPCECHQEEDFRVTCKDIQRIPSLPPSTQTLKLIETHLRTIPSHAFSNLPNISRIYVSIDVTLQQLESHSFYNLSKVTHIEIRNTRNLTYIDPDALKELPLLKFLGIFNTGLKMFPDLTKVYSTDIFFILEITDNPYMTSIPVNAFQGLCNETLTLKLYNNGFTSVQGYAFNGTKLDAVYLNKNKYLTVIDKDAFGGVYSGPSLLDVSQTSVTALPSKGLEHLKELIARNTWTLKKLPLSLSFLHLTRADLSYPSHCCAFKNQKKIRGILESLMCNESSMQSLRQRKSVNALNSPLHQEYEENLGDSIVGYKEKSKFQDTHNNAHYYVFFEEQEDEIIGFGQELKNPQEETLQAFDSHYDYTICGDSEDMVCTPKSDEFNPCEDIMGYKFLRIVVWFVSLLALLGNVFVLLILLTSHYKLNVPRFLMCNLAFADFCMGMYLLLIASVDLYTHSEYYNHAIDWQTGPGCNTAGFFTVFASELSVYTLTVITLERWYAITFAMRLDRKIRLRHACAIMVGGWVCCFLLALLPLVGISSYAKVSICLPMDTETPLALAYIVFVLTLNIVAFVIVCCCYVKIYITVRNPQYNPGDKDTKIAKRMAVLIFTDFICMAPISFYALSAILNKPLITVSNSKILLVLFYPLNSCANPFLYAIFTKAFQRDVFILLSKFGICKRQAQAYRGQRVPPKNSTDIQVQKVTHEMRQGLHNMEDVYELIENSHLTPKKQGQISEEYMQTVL
Sequence of UniProt O75469 (O75469 whole entry, looked up): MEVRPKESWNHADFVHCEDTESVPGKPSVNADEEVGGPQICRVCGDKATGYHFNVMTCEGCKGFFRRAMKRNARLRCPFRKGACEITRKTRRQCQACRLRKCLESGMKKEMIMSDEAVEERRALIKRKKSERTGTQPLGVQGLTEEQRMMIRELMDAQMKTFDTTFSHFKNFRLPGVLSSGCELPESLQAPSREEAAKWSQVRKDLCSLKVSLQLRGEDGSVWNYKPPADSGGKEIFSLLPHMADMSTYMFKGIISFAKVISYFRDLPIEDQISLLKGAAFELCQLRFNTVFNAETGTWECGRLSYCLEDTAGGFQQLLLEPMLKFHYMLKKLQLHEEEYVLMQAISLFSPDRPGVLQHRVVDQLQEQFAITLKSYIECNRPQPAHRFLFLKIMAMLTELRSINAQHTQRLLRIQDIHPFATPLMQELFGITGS

CC(C)=CCC/C(C)=C/C=O
Potency [1]: inactive
Potency [2]: inconclusive: 62.9 µM [activator, partial curve, poor fit]

CCCCCCC(O)CO (stereo unspecified)
Potency [3]: inactive
Potency [4]: inactive

CCC[C@@H]1C[C@@H](C(=O)N[C@@H]([C@H]2O[C@H](SC)[C@H](O)[C@@H](O)[C@H]2O)[C@@H](C)O)N(C)C1
Potency [3]: inactive
activity, negative = inhibition [5]: inconclusive: -1.12% [at 35.3 µM]

CC(=O)Nc1ccc(/C=N/NC(N)=S)cc1
Potency [6]: inactive and inconclusive: 18.8 µM [activator, partial curve, poor fit]
Potency [7]: inconclusive: 26.6 µM [falling, single point]

CCCCCCCCCCCCCCCCCCOCCO
Potency [8]: inactive

N#Cc1ccc(C(c2ccc(C#N)cc2)n2cncn2)cc1
Potency [8]: inactive
Potency [9]: inconclusive: 2.27 µM [rising, partial curve, poor fit]
Potency [6]: inactive
Potency [10]: inactive
Potency [11]: inactive
Potency [7]: inactive

CNC(=O)c1c(I)c(NC(=O)CCCCC(=O)Nc2c(I)c(C(=O)O)c(I)c(C(=O)NC)c2I)c(I)c(C(=O)O)c1I
Potency [12]: inactive

CCCCCCCCCCCCCC=O
viability change, negative = cytotoxic [8]: inactive: -4.68% [at 8.47 µM]

Cc1ccccc1CCO
Potency [10]: inactive

CCCCCCCOC(C)=O
Potency [6]: inconclusive: 30.6 µM [activator, partial curve, poor fit]
Potency [13]: inactive
Potency [14]: inactive

CCCCCCCC(=O)N(C)C
Potency [2]: inconclusive: 21.9 µM [activator, single point]
Potency [15]: inactive
Potency [12]: inconclusive: 24.3 µM [activator, partial curve]

CCOC(=O)C1=NOC(c2ccccc2)(c2ccccc2)C1
Potency [8]: inactive
Potency [1]: inactive
Potency [15]: inactive

CC(CN=Cc1ccccc1O)N=Cc1ccccc1O (stereo unspecified)
Potency [6]: active: 27.3 µM
Potency [16]: inconclusive: 0.871 µM [cytotoxic, full curve, poor fit]

COCCCOc1cc(C[C@@H](C[C@H](N)[C@@H](O)C[C@H](C(=O)NCC(C)(C)C(N)=O)C(C)C)C(C)C)ccc1OC
Potency [1]: inactive

N#Cc1c(F)cccc1F
Potency [10]: inactive
Potency [12]: inconclusive: 68.6 µM [activator, single point]

CCC(C=O)CC
Potency [17]: inactive
Potency [18]: inconclusive: 0.247 µM [rising, partial curve, poor fit]
Potency [19]: inactive

O=C(O)c1cccc(C(=O)O)n1
Potency [11]: inactive
activity, negative = inhibition [5]: inconclusive: -13.9%

CCC1CCCCC1
activity, negative = inhibition [5]: inconclusive: -18.7%
Potency [12]: inactive

C1CCC2=NCCCN2CC1
Potency [16]: inconclusive: 0.346 µM [cytotoxic, full curve, poor fit]

CCC(CC)CO
Potency [9]: inactive
Potency [18]: inconclusive: 4.9 µM [cytotoxic, full curve, poor fit]

COc1cc(Cl)c(OC)cc1N
Potency [6]: active: 30.6 µM
Potency [20]: inconclusive: 61.6 µM [cytotoxic, partial curve, poor fit]
Potency [7]: inconclusive: 61.1 µM [falling, partial curve]

O=C(Cl)c1ccccc1[N+](=O)[O-]
Potency [17]: inconclusive: 56.2 µM [rising, partial curve, poor fit]
Potency [6]: inconclusive: 55.8 µM [activator, partial curve, poor fit]
Potency [18]: inactive

CC(=O)S[C@H](C(=O)N[C@H]1Cc2ccccc2[C@H]2CCC[C@@H](C(=O)O)N2C1=O)C(C)C
Potency [18]: inconclusive: 0.138 µM [rising, partial curve]

CCCOC(=O)CCCCC(=O)OCCC
Potency [9]: inconclusive: 30.6 µM [rising, partial curve, poor fit]

CCc1ccc(C=O)cc1
Potency [4]: inactive

CCCCCCCCC(=O)O
Potency [14]: inactive
Potency [5]: inconclusive: 37.7 µM [rising, partial curve, poor fit]

C=Cc1ccc(C=C)cc1
Potency [17]: inactive

OCCN1CCOCC1
Potency [1]: inactive
Potency [14]: inactive

CC(C)(Oc1ccc(Cl)cc1)C(=O)OCCCOC(=O)C(C)(C)Oc1ccc(Cl)cc1
Potency [19]: inconclusive: 21.3 µM [cytotoxic, partial curve, poor fit]
Potency [2]: inactive
Potency [4]: inconclusive: 23.9 µM [cytotoxic, partial curve, poor fit]
Potency [7]: active: 29.8 µM

C/C(=C(\CCO)SS/C(CCO)=C(\C)N(C=O)Cc1cnc(C)nc1N)N(C=O)Cc1cnc(C)nc1N
Potency [2]: inactive
Potency [7]: inactive

NC(=S)N/N=C/c1cccnc1
Potency [9]: inactive
activity change, negative = cytotoxicity [18]: inconclusive: -1.19%
Potency [7]: inconclusive: 29.8 µM [falling, single point]
activity, negative = inhibition [5]: inconclusive: -10.7% [at 35.3 µM]
